The values that follow come from patent US20090143279A1 (priority 2007, published 2009).

Like-named read-outs stand apart in the source and are kept apart here.

In this series the test system is cellular ATP levels.
Where [1] appears, read: Conc 20 μM, normalized score vs mock-treated (DMSO) wells.
The mark [2] stands for this setting: normalized composite Z-score vs mock-treated (DMSO) wells, Conc 20 μM.
The mark [3] stands for this setting: composite Z-score vs DMSO, Conc 20 μM.
[4] abbreviates: composite Z-score vs mock-treated (DMSO) wells, Conc 20 μM.
Setting [5] is: composite Z-score vs DMSO wells, Conc 20 μM.
Setting [6] is: 20 μM, composite Z-score vs DMSO.
Where [7] appears, read: Table 4, C2C12 myotubes, 48 h, composite Z-score.

Regarding `CC(=O)O[C@H]1CC[C@]2(C)C3=CC(=O)[C@]4(C)[C@@H]5[C@H](C[C@H]4[C@@H]3CC[C@H]2C1)O[C@@]1(OCC(C)CC1Br)[C@H]5C` (some centres unmarked), the “ATP (composite Z-score)” value under setting [1] is on record as −0.670. Take `C=C1C2CC[C@@]3(C)[C@H](c4ccoc4)OC(=O)C[C@]13O[C@H]1C[C@H](OC(C)=O)C(C)(C)[C@H](CC(=O)OC)[C@@]21C`: the “ATP (composite Z-score)” value under setting [1] was 0.081.

Regarding `C=CC(C)(O)CCC=C(C)C` (single isomer, unassigned; (+)) [(+)-linalool], the “ATP (composite Z-score)” value under setting [1] is given as −0.323. In the case of `CC(=O)O[C@@H]1CC2C(C)(C)C(=O)[C@@H]3O[C@@H]3[C@]2(C)C2CC[C@]3(C)C(=CC(=O)O[C@H]3c3ccoc3)[C@@]21C` (stereo partly drawn) [1 (2)alpha-epoxydeoxydihydrogedunin], the ATP under setting [2] is listed as 0.869. As for `CC(=O)O[C@@H]1CC2C(C)(C)[C@H](O)C=C[C@]2(C)C2CC[C@]3(C)C(=CC(=O)O[C@H]3c3ccoc3)[C@@]21C` (stereo partly drawn) [3-alpha-hydroxydeoxygedinin], under setting [1], the “ATP (composite Z-score)” value is 0.418.

For the compound `C[C@H]1O[C@@H](n2cc(F)c(=O)[nH]c2=O)[C@H](O)[C@@H]1O` [5-fluoro-5′-deoxyuridine], the ATP under setting [3] worked out at 0.603. As to `O=C(O)c1cc([N+](=O)[O-])ccc1NCCCc1ccccc1` [5-nitro-2-phenylpropylaminobenzoic acid], the “ATP (composite Z-score vs DMSO)” value amounted to 0.261. On to `CC(=O)O[C@H]1C[C@@H](OC(C)=O)C(C)(C)C2C[C@@H](O)[C@]3(C)C(CC[C@@]4(C)[C@H](c5ccoc5)OC(=O)[C@H]5O[C@]543)[C@]21C` (some centres unmarked) [7-deacetylkhivorin], for which the ATP under setting [4] stood at 1.348. As to `CC(=O)N[C@@H](CC(=O)O)C(=O)O` [N-acetylaspartic acid], the “ATP (composite Z-score)” value under setting [1] was determined as 0.521.

In the case of `CN[C@@H](Cc1c[nH]c2ccccc12)C(=O)O` [abrine], the “ATP (composite Z-score)” value came out at 0.140. As for `CC1=CC(=O)CC(C)(C)[C@@]1(O)/C=C/C(C)=C\C(=O)O` [abscisic acid], under setting [2], the ATP came out at 0.509. `CC(=O)N[C@@H](CC(C)C)C(=O)O` [acetyl-L-leucine] had an ATP under setting [5] of 0.771. `CN(C)c1nc(N(C)C)nc(N(C)C)n1` [altretamine] registered an ATP under setting [6] of 0.427. For `C#CCCCCCCCCCCCC(O)CC(O)CO` (centres unmarked) [avocadyne], the ATP is listed as −0.278 under setting [3] and −0.151 under setting [2]. Turning to `COc1cc2c(cc1OC)C1C(=O)c3c(cc4c(c3O)C=CC(C)(C)O4)OC1CO2` (stereo not drawn) [beta-toxicarol, reference compound], the ATP under setting [7] is given as −2.000 and the ATP under setting [2] was −2.000. As for `CC(C)=CCC[C@](C)(O)C1CC=C(C)CC1` (some centres unmarked) [bisabolol], under setting [3], the ATP is listed as 0.982.

`COC(=O)C[C@H]1C(C)(C)C(=O)[C@@H]2CC3C4=CC(=O)O[C@@H](c5ccoc5)[C@]4(C)CC[C@@H]3[C@@]1(C)C2=O` (some centres unmarked) [carapin] came in with an ATP under setting [4] of 0.175. In the case of `O=C(Oc1cc(OC(=O)c2ccccc2)c2c(c1)O[C@H](c1ccc(OC(=O)c3ccccc3)c(OC(=O)c3ccccc3)c1)[C@@H](OC(=O)c1ccccc1)C2)c1ccccc1` [catechin pentabenzoate], the “ATP (composite Z-score)” value under setting [1] is reported as 0.169. The compound `CCN1CCN(C(=O)N[C@@H](C(=O)N[C@@H]2C(=O)N3C(C(=O)O)=C(CSc4nnnn4C)CS[C@H]23)c2ccc(O)cc2)C(=O)C1=O` [cefoperazone] had an ATP under setting [4] of 0.164. With `Oc1c(Cl)cc(Cl)c2cccnc12` [chloroxine], the ATP under setting [5] is given as −1.831.

Consider `NS(=O)(=O)c1cc(C2(O)NC(=O)c3ccccc32)ccc1Cl` (centres unmarked) [chlorthalidone], for which the ATP under setting [6] was 0.323. For the compound `CC(C)CCC[C@@H](C)[C@H]1CC[C@H]2[C@@H]3C[C@@H](O)[C@@]4(O)C[C@@H](O)CC[C@]4(C)[C@H]3CC[C@]12C` [cholestan-3beta,5alpha,6beta-triol], the “ATP (composite Z-score)” value under setting [1] worked out at 0.747. `CC1OC(OC2C(O)COC(OC3C(C)OC(OC4C(OC(=O)C56CCC(C)(C)CC5C5=CCC7C8(C)CCC(OC9OC(CO)C(O)C(O)C9O)C(C)(C)C8CCC7(C)C5(C)CC6O)OCC(O)C4O)C(O)C3O)C2O)C(O)C(O)C1O` (centres unmarked) [chrysanthellin A]: the ATP under setting [2] is −2.958. Turning to `Cc1cc(C2CCCCC2)n(O)c(=O)c1` [ciclopirox olamine], under setting [6], the ATP was −1.900. On the same count and under the same terms, as for `Cc1onc(-c2ccccc2Cl)c1C(=O)N[C@@H]1C(=O)N2[C@@H]1SC(C)(C)[C@@H]2C(=O)O` [cloxacillin], the figure is 0.231. `C[C@]12CCC(=O)C=C1CC[C@@H]1[C@@H]2C(=O)C[C@@]2(C)[C@H]1CC[C@]2(O)C(=O)CO` [cortisone]: the ATP under setting [3] is 0.319. `C=C1C(=O)O[C@H]2C[C@@H]1C(OC(C)=O)C/C(C)=C/CC/C(C)=C/CC[C@@]2(C)O` (some centres unmarked) [crassin acetate]: under setting [4], the ATP is on record as 0.769.

As for `Cc1onc(-c2c(Cl)cccc2Cl)c1C(=O)N[C@@H]1C(=O)N2[C@@H]1SC(C)(C)[C@@H]2C(=O)O` [dicloxacillin sodium], the ATP under setting [5] was −0.299. For the compound `CC(=O)[C@H]1CC[C@H]2[C@@H]3CCC4C[C@H](O)CC[C@]4(C)[C@H]3C[C@H](O)[C@]12C` (stereo partly drawn) [dihydroxy (3alpha,12alpha)pregnan-20-one], the ATP under setting [4] was −0.294. For `COc1ccc(/C=C/C(=O)O)cc1OC` [dimethylcaffeic acid], the “ATP (composite Z-score)” value under setting [1] worked out at 1.552. `COc1cc([C@@H]2c3cc4c(cc3[C@@H](O[C@@H]3O[C@@H]5CO[C@@H](C)O[C@H]5[C@H](O)[C@H]3O)[C@H]3COC(=O)[C@H]23)OCO4)cc(OC)c1O` [etoposide] showed an ATP under setting [3] of 0.749. Turning to `C=C(C)c1cc2cc(C(C)=O)c(O)cc2o1` [euparin], under setting [4], the ATP is reported as −1.071. On to `Fc1ccc(C(c2ccccc2)(c2ccccc2F)n2ccnc2)cc1` (centres unmarked) [flutrimazole], for which the ATP under setting [6] is on record as 0.176.

Take `CC1(C)O[C@@H]2C[C@H]3[C@@H]4CCC5=CC(=O)CC[C@]5(C)[C@@]4(F)[C@@H](O)C[C@]3(C)[C@]2(C(=O)CCl)O1` [halcinonide]: the ATP under setting [3] is −0.401. Consider `CCCCN(CCCC)CCC(O)c1cc2c(Cl)cc(Cl)cc2c2cc(C(F)(F)F)ccc12` (centres unmarked) [halofantrine], for which, under “composite Z-score vs DMSO, Conc 8 μM”, the ATP is recorded as −0.166. As for `CCC(C)C(OC(C)=O)C(=O)O[C@H]1[C@H](O)[C@@H]2[C@@]3(C)C=CC(=O)C(C)(C)[C@@H]3C[C@@H](OC(=O)C(O)C(C)C)[C@@]2(C)[C@@]23O[C@@H]2C[C@@H](c2ccoc2)[C@]13C` (some centres unmarked) [heudelottin C, reference compound], the “ATP (composite Z-score)” value under setting [1] was 0.840. The compound also had an ATP under setting [7] of 0.840. With `C/C1=C\CC/C(C)=C/CC(C)(C)/C=C/C1` [humulene], under setting [2], the ATP is reported as 0.403.

`COc1cc(-c2coc3cc(OCc4ccccc4)c(OC)c(O)c3c2=O)cc(OCc2ccccc2)c1OC` [irigenin, dibenzyl ether] showed an ATP under setting [3] of 0.867. In the case of `COc1ccc2c(c1O)-c1c(OC)c(OC)cc3c1[C@H](C2)N(C)CC3` [isocorydine], the “ATP (composite Z-score)” value by setting is: (Conc 11.72 μM, normalized score vs mock-treated (DMSO) wells) −0.052; under setting [1], 0.593. For `CC[C@H](C)C(=O)O[C@H]1C[C@@H](C)C=C2C=C[C@H](C)[C@H](CC[C@@H]3C[C@@H](O)CC(=O)O3)[C@H]21` [lovastatin, reference compound], the “cellular ATP levels” value is recorded as “strong decreases”. Under setting [2], `OC[C@H]1O[C@@](CO)(O[C@H]2O[C@H](CO)[C@@H](O)[C@H](O)[C@H]2O)[C@@H](O[C@H]2O[C@H](CO)[C@@H](O)[C@H](O)[C@H]2O)[C@@H]1O` [melezitose] displayed an ATP of 0.268.

Regarding `CC1CCC(C(C)C)C(OC(=O)c2ccccc2)C1` (centres unmarked) [menthyl benzoate], under setting [1], the “ATP (composite Z-score)” value came to 0.906.

On to `C=C1c2cccc(O)c2C(=O)C2=C(O)[C@]3(O)C(=O)C(C(N)=O)=C(O)[C@@H](N(C)C)[C@@H]3[C@@H](O)[C@H]12` [methacycline, reference compound], for which, under setting [5], the ATP is −0.365. For the compound `COCCc1ccc(OCC(O)CNC(C)C)cc1` (centres unmarked) [metoprolol, reference compound], the “cellular ATP levels, combination of statin and β-blocker” value is “neither atenolol nor metoprolol showed an effect”. Further, the ATP (composite Z-score vs DMSO, Conc 9.58 μM) was found to be 0.449. The compound also yielded an ATP under setting [3] of 1.130. `C=C(C)[C@H]1COc2cc3oc(=O)ccc3cc2O1` [obliquin]: the ATP under setting [4] was determined as 1.040. The compound `CC(=O)C[C@H]1CCCCN1` [pelletierine] registered an ATP under setting [2] of 1.086. `COc1cc([C@@H]2c3cc4c(cc3[C@H](O)[C@H]3COC(=O)[C@@H]23)OCO4)cc(OC)c1OC` [picropodophyllotoxin, reference compound]: the ATP under setting [3] was −0.952. In turn, `CC(C)=CCOc1cc2oc(=O)ccc2cc1O` [prenyletin] yielded an ATP under setting [4] of 0.659. Under setting [3], `O=C(O)c1cccc(O)c1O` [pyrocatechuic acid] yielded an ATP of 1.015. With `CC1=CC(=O)[C@H]2C(C)(C)CCC[C@]2(C)[C@@]1(O)CCc1ccoc1` [solidagenone], the ATP under setting [4] was found to be 0.314. In the case of `CN[C@@H]1C[C@H]2O[C@@](C)([C@@H]1OC)n1c3ccccc3c3c4c(c5c6ccccc6n2c5c31)C(=O)NC4` [staurosporine, reference compound], the ATP entry (assay control, FIG. 3 (4)) is listed as “reduced”. Under setting [3], `C[C@H](CCC(=O)O)[C@H]1CC[C@H]2[C@@H]3CC[C@@H]4CCCC[C@]4(C)[C@H]3CC[C@]12C` [ursocholanic acid] had an ATP of 0.349. Same read-out and setting: in the case of spiramycin it was 0.288.
